Results: the supplement of paper PMC3334620
The full ranking holds about 33,000 sequences; the median of “E-score (-0.5 to 0.5)” is about -0.035, and the highest 2% start at about 0.34. Some of the results follow.

target: T1, Mot3 (UniProt P54785); assay: PBM E-score (8-mer binding enrichment) (E-score (-0.5 to 0.5)); higher = stronger / more preferred TF binding; most listed sequences are background and not binding sites; details: protein concentration: 200 nM; construct: GST-full length
T1 sequence: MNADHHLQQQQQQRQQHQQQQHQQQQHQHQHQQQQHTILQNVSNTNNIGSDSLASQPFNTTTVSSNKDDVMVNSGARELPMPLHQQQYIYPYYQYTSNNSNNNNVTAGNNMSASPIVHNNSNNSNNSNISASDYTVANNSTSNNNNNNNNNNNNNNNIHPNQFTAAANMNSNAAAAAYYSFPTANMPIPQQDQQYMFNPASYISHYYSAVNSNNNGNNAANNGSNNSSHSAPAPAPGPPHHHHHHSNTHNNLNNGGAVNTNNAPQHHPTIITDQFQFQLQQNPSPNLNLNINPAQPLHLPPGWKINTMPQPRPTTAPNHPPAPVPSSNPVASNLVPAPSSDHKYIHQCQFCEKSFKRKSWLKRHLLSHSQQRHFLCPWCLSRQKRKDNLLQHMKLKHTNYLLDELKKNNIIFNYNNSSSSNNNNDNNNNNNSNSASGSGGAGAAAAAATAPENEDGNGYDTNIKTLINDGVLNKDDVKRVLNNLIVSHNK
Outline: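 Using PURExpress in vitro transcription/translation, GST-tagged yeast transcription factors were made in full-length or DNA-binding-domain form. These were applied at about 100-200 nM to double-stranded universal all-10-mer Agilent arrays, and bound protein was detected with fluorescent anti-GST. Scans were normalised with masliner before the Universal PBM Analysis Suite assigned E-scores to ungapped eight-base words pooled with their reverse complements.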

Sequence	PBM E-score
AACTAACT	-0.143
ATAGTTCC	0.0344
GCCGGTAA	-0.0782
CATCTCGA	-0.141
CCGGCCTC	-0.0877
CCTTCCCG	-0.234
GAAGGCCC	0.122
CTGCCAAG	-0.0709
AGAAAAAG	-0.0708
GCGGGGAA	-0.0789
AGGGAAGC	-0.33
TCGAGAAA	0.0487
AGTCAGGA	0.0678
GGTTGTAA	0.269
TTCAAGAA	0.00671
CCGAATGC	-0.272
TCCTAGCA	-0.0797
CGGGCCGA	-0.23
CCAGTACG	-0.153
GCAGAAGA	-0.222
AGACATAA	0.121
CTACGTGC	0.108
ATTTTATG	-0.00782
CCGTATAG	-0.208
GTCTTTAA	0.0399

Sequence	PBM E-score
TAGGAATA	-0.0896
CTATTTAA	0.0572
ACTGCTCG	-0.123
ACATAGCA	0.269
AGTTAAGG	0.116
AGTCTGAG	-0.225
ATCGCGGG	-0.186
AACATGAC	0.359
ACCTGGCT	-0.161
CGTCGCGA	-0.1
GCAGTATA	-0.17
TCGGCTCA	-0.327
GAGTACGA	-0.0923
GCCATGGA	-0.144
AGTCCATC	-0.184
AATCCCAG	-0.0485
CTAGCGAC	-0.0534
GTCGCTTA	-0.0775
GTGCCCTA	0.265
TATCGGAA	0.0818
ACTGCTTC	-0.242
CTAACCAC	-0.0498
GATTGCCC	-0.0963
CGTTTGTC	-0.0445
GATGCACC	-0.207

Sequence	PBM E-score
AGGACTAG	0.00019
GTCCGTGA	-0.148
CGTCAAGC	-0.178
AGACTGAT	-0.085
GGTCGGTA	-0.102
CGGGGGCC	-0.124
CACTCTGC	0.00552
GTGGACCA	-0.133
CAAGAAGG	0.0725
AATGTTCA	0.184
ACAGCACG	0.056
CGCGTCGA	0.0669
ACCGAGCG	-0.194
ACGTACGT	0.23
ACTACTCA	0.0874
CTAAAACC	-0.00842
CGGCCTAG	-0.273
ATACAACG	0.136
ATCATTTC	-0.0571
AACACCAA	0.167
AGTACAAG	0.199
GAGTAGCA	-0.142
CAAGCCAA	0.12
CAACCTTA	0.0744
ATAGACTC	-0.217

Sequence	PBM E-score
CTTAATTA	0.0993
CAGACTAC	-0.135
GTGATGGA	-0.0675
TCCGTGCA	0.072
ACATACGA	0.315
AGTACTGG	-0.0501
ACATCGTA	0.154
ATTAAAGA	0.00619
TCGTTCCA	-0.0636
ATGTTTGC	0.176
CGTTCCAC	-0.148
ACACAGCG	0.318
AGGCCTGG	-0.2
TAGTCCAA	-0.0422
GGATGGAA	-0.292
AATGGCCT	-0.286
ACATCCGG	-0.207
GCTTGGGA	-0.218
CGGACGCC	-0.0906
ATCAGCAG	-0.0659
ACAGCGTC	0.112
AGGAGCCT	0.176
CACTGGAG	-0.209
CAGGAATA	0.128
GGTCCGTA	-0.332

Sequence	PBM E-score
CATTTTCA	0.0951
ACACTCCC	-0.108
TAAGTACA	0.2
CGGACCTA	-0.0377
GGAATAAA	-0.0165
GGGTCCAA	-0.213
ATCATAAA	0.00499
CCAAGTTA	0.209
TTCCGAAA	-0.102
ATTTAATC	0.0983
CTATTAGC	0.00709
ACGATTTG	0.0306
AAATGCCC	-0.192
ACCTTCCG	0.0672
AACTGGGT	-0.0369
AATGAGTA	0.184
ATAGCCAA	-0.164
GCGGTGCA	-0.279
ATTAAATG	0.166
CTGTACCC	-0.0603
GGTAAAGA	0.128
GGTTCGCA	-0.0826
CTGGCTTA	-0.0828
AATTTTAA	0.155
CGTCTGAA	-0.0897

Sequence	PBM E-score
GCTATAAC	-0.0423
AGGAAGGC	0.217
ATGTAACA	0.373
AAAGGAAA	0.442
CTCGGCGA	-0.184
GTGTTTCA	0.146
GGGCCACC	-0.338
GCCTGAAC	0.303
CCCCACCC	-0.267
CCCTACGC	-0.0662
CTTCAGAA	0.0786
CAATGTCC	-0.222
CCATATTC	-0.155
ATCAGCCC	-0.272
ACCTTCGG	-0.18
GTGCCAGA	-0.244
AAGGTTGC	0.0205
ATCGATGG	-0.0234
AGAGGCCT	-0.177
GGCTCGAC	-0.22
GCCTCACC	-0.0526
AGTGTAAA	0.28
TATCTCGA	-0.0872
CAGTATGC	-0.0987
CGCTTGGA	-0.121

Sequence	PBM E-score
GGTATGCA	-0.0141
CGGTATAC	-0.177
AGTTTTGA	0.0108
AAATCTAA	0.0406
GGGATTGA	-0.179
CGGGGGGC	-0.295
GGGCCCAA	-0.208
CACGTGTC	0.183
ACTCCAAC	-0.0557
ACTCTAAT	-0.143
GATCCTCC	-0.303
GCAGCAAA	-0.13
AACTCATA	0.035
AGTTATAT	0.111
ACGCGCGA	0.144
CCGAGAGA	-0.222
CGGACAGC	-0.205
ACTCTAGG	-0.00613
GAACTATA	0.0585
GTACGAAA	0.0933
ACTCACCT	-0.15
GTTACCAA	0.0576
ACAGAGTC	0.0655
GTTGCTCA	-0.0143
GAGTTTCC	-0.085

Sequence	PBM E-score
AGCGCCAA	-0.225
CGGGACAG	-0.18
AAAGAGCA	-0.128
CTGCCCGA	-0.126
AAAAACCT	0.191
AGTATTAG	0.0221
CGGTGACC	-0.218
AGCAACCA	-0.0726
AAATCGGC	-0.156
CACGGATG	0.0568
AACTGATG	0.138
CCATCACA	-0.0499
AGGGCCTG	0.015
GAACATTA	0.205
ATTGCCTG	0.482
CGAGTCTA	-0.236
TCAAATCA	0.138
CAAGGGGA	-0.136
AAGCGCCC	-0.285
AAAGGGTA	0.045
ACACCAGC	-0.0519
ACGCTTAA	0.114
GCGCAAGC	-0.172
ACTCGGTC	0.0339
TAGACTCA	-0.236

Sequence	PBM E-score
ATAATAAA	0.132
CGCTTTGA	-0.205
AGGGGACC	-0.258
TACCATCA	-0.116
GGGTAAGA	-0.146
CTAATACC	-0.0621
GCCTACTA	0.257
ATTAGTTG	0.0815
ACTAGTCC	-0.201
AACTCGCG	0.12
ATCCTGAA	0.0408
AGACATCG	-0.14
CGATTACA	0.357
ATGCCAAA	0.0179
CGGTAAAC	-0.0562
AAGGTGGA	-0.124
AATGGCGC	-0.108
ACTGCTAT	-0.138
CACAGCAA	0.108
ACCGGTAT	-0.135
CGACTCAA	0.0985
GTCCCCGA	-0.00634
CGACGTAA	0.261
AAGATAAC	0.226
TGCCCTAA	-0.0162

Sequence	PBM E-score
ACTTTTTA	0.0914
CGGTGTCC	-0.376
GCAGCGCC	-0.0844
ACGTAGCT	-0.0294
GCAACGCA	-0.0525
CTGGGTGA	-0.0611
GGCGTGTA	0.383
ATCGTAAA	0.146
CACCTTTC	-0.0989
AGAGCAAT	-0.16
AAGAGCGG	-0.171
TCACCCGA	-0.0973
ATGGTCCC	-0.135
CGGTACTC	-0.0673
ATATTTAA	0.0932
GACATTGC	0.00735
ATCCTGTC	-0.0352
ATAGCTCA	-0.059
AACATAGT	0.241
CACTAAGA	0.0619
CGGGCCAA	-0.373
GCATAAAC	0.0484
CACATCAC	-0.0113
AAGAGGAC	-0.25
CTAAGTAC	0.101

Sequence	PBM E-score
AGCTGATA	-0.0692
AAAAAGAC	-0.0453
TCAGACGA	-0.216
CTTATCCC	-0.0598
CGTCGGGC	-0.305
GAACTAAC	-0.0148
CAGTGCCC	0.00404
AATACTCC	-0.144
ATCCATCA	-0.0789
GGTCAGAC	-0.242
GCCTCTAA	0.0682
CGATAACC	-0.189
CCTTTCCA	-0.151
GAAGCGTA	-0.137
CGGTTATA	-0.0889
CTGCCCGC	-0.114
GCACGGGA	-0.112
GACCTTTA	0.0737
AATCTATC	-0.122
AACTGGAT	-0.153
ACTGAGGC	-0.119
CCTTTACG	0.172
AATGGAAT	0.0802
CTGAAGCC	-0.0623
GATGTCTA	-0.123

Sequence	PBM E-score
CCTAGGAA	0.018
ATAAAGTG	0.113
ATAGTTTC	-0.159
CAATGTGG	-0.167
ACTAGATA	0.0586
CAGTACGC	0.0161
CTGACTCA	-0.0366
ATTTTGTC	0.0982
GGCGAGAC	-0.213
ACGCTAAA	0.0401
ACCTTCAT	0.18
GGCCATCA	-0.158
GATCTGAA	-0.359
CAGTCGAA	-0.0764
AAGTTATT	0.189
CGGGACTC	-0.223
ATCCCTGG	-0.149
ATTAAAAT	0.123
CTTATTCA	-0.211
TAATAAGA	0.085
CGTCGAGA	-0.15
AATAACTA	0.192
GACGTGGC	-0.0954
CGGAGTAA	-0.0235
AGAAATAT	0.134

Sequence	PBM E-score
ACGTCGCG	0.104
GTCATAAA	-0.011
GACGATCA	-0.109
CAAGTAGG	0.105
GACCTCTA	-0.102
AAACACGC	0.312
CAACTCCA	-0.0879
AATTGGAT	-0.0393
AACATCGC	0.0333
GCTTTGGA	0.0118
AGGATAAT	0.0447
GAAGTCTA	-0.256
ACCAGGCG	-0.221
ATGCAAGA	0.209
TGTGCGAA	-0.0504
AACATCTT	-0.0445
AGCATCGA	0.0686
AAAACATT	0.187
CCATTAAG	-0.138
TCCCACAA	-0.147
CGGTAGTC	-0.299
GCAATGAC	0.0358
AAGTCTTG	0.121
CGGGGCTA	-0.291
CTTTACTC	0.247

Sequence	PBM E-score
ACGCCCGG	-0.159
GGGTTTTA	0.151
TCCTTAAA	0.118
CTGCTCCC	-0.199
AGTACCCA	0.0368
CACCCTCA	-0.23
AAAAGCTA	-0.0237
ATAAAGTA	0.189
AAACCTGG	0.0922
CACGAGCA	-0.0469
CGTGAGAC	-0.0998
GATCAACA	0.218
AATCTCGG	-0.0615
ATCCGCGC	-0.0348
TCCGCAGA	-0.294
ATGTTACG	0.228
ACTCGCAA	0.127
CAGCCTCC	-0.249
AGAGGAAG	-0.112
